# Reference: the supplement of paper PMC9433436
# ± gives the standard deviation of the averaged measurements. Over roughly 4,100 sequences, “relative kcat/Km (krel) vs genomic leader AAAGAU” has its median near 1.7; the highest 2% begin near 6.5. The list shows a part of the results, in another mix than the full data.
# Target: T1, E. coli RNase P holoenzyme (M1 P RNA + rnpA protein) (UniProt P0A7Y8)
# T1 sequence: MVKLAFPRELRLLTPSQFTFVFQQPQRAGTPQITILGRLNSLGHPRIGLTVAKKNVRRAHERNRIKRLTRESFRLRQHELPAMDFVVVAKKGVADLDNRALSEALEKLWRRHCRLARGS
# Experiment: relative kcat/Km (krel) vs genomic leader AAAGAU (relative (reference leader = 1)); higher = faster RNase P cleavage
# Protocol: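 HTS-Kin: a pool of ptRNA-Met (21C construct) with all 4096 combinations of 5' leader nucleotides N(-6) to N(-1) was processed in vitro by E. coli RNase P (P RNA + rnpA/C5 protein) under multiple-turnover conditions at 37 C, pH 8, 17.5 mM MgCl2. Residual substrate was Illumina-sequenced at several fractions reacted, and relative kcat/Km (krel) was computed by internal competition kinetics, calibrated to the genomic leader (AAAGAU = 1). The listed hexamer is the varied N(-6)..N(-1) leader (DNA letters), and it sits between a fixed 5' stem-loop flank (GCAUGCACGAAAGUGCGUGCUAUGAA) and the mature tRNA-Met starting GGCUACGUAGCUCAGUUGG. Two technical replicates are averaged.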
# [1] = fraction of substrate reacted: ~26-29% (28.66% repeat 1, 26.4% repeat 2)
# [2] = fraction of substrate reacted: ~9-10% (9.79% repeat 1, 9.1% repeat 2)
# [3] = fraction of substrate reacted: ~13-16% (15.68% repeat 1, 13.17% repeat 2)
Sequence,relative kcat/Km [1],relative kcat/Km [2],relative kcat/Km [3]
ATGGGA,1.49 ± 1.4,,
CCCATT,4.55 ± 1.2,3.01 ± 1.9,3.28 ± 1
CACTAA,,4.69 ± 2,6.03 ± 0.39
GGTGAT,0.836 ± 0.12,1.04 ± 0.56,1.41 ± 0.93
TCGTAA,6.16 ± 2.7,3.3 ± 0.9,3.79 ± 0.62
AGCCAT,4.77 ± 2,3.54 ± 1.2,3.08 ± 0.86
AATGAA,2.72 ± 0.88,2.18 ± 1.1,2.14 ± 0.073
CCCAAT,5.27 ± 1.6,2.73 ± 0.86,3.48 ± 0.28
CTATTT,4.35 ± 1.7,2.47 ± 0.62,2.94 ± 0.044
TTACTC,2.78 ± 1.1,2.66 ± 1.6,2.15 ± 0.39
ATTAGC,3.69 ± 2.3,2.45 ± 0.043,2.96 ± 1.1
AATAAA,3.16 ± 1.1,2.18 ± 0.14,2.61 ± 0.59
GCTGCA,1.21 ± 0.6,1.48 ± 0.78,1.42 ± 0.66
TTCACA,7.72 ± 3.1,4.51 ± 1.9,5.55 ± 0.86
GAGAGT,,0.122 ± 0.072,1.48 ± 0.097
TTGTAA,6.19 ± 2.7,3.67 ± 1.1,4.3 ± 1.1
TAGTTC,4.29 ± 1.8,2.74 ± 1.1,3.13 ± 0.089
GGGCAG,1.13 ± 0.077,,
GACCTT,5.08 ± 2.5,2.25 ± 0.24,3.46 ± 0.31
CACGGG,0.479 ± 0.22,,
TCTCCC,3.09 ± 1.2,1.59 ± 0.21,1.94 ± 0.69
GGATGT,1.06 ± 0.81,,

Sequence,relative kcat/Km [1],relative kcat/Km [2],relative kcat/Km [3]
TGTCAG,3.3 ± 0.62,,1.4 ± 0.17
GGGCGA,1.72 ± 0.52,0.804 ± 0.064,0.798 ± 0.057
TGATGG,0.867 ± 0.14,1.11 ± 0.94,
AACCCC,2.61 ± 0.82,3.18 ± 2.8,2.43 ± 0.93
ACGAAA,2.72 ± 1.1,1.79 ± 0.39,1.66 ± 0.37
AGCATC,2.86 ± 0.74,1.66 ± 0.9,1.68 ± 0.58
TCCAAC,5.77 ± 1.9,3.85 ± 2,4.11 ± 0.11
AATCAG,1.9 ± 0.11,,0.468 ± 0.24
GTTGAC,4.3 ± 1.8,2.56 ± 0.24,3.28 ± 0.96
CCAGCA,0.927 ± 0.46,1.37 ± 0.54,0.452 ± 0.45
TTGATC,2.5 ± 0.46,2.19 ± 1.3,2.1 ± 0.3
TTCGGA,1.79 ± 1,,
GGGTCC,0.769 ± 0.49,,0.434 ± 0.14
TCTCAG,2.83 ± 1.1,,1.21 ± 0.028
CCGACA,0.842 ± 0.8,0.997 ± 0.31,
ACTTGG,0.897 ± 0.036,0.844 ± 0.79,0.9 ± 0.092
CGTACG,1.43 ± 0.11,,
TCGACC,3 ± 0.92,3.05 ± 1.3,2.32 ± 1.3
GAGGGC,1.59 ± 1.5,0.814 ± 0.78,
TAGGAG,0.884 ± 0.25,,
ACACCT,2.53 ± 1.6,2.6 ± 1.3,1.66 ± 0.33
CGGTAA,0.91 ± 0.35,0.528 ± 0.29,0.278 ± 0.2

Sequence,relative kcat/Km [1],relative kcat/Km [2],relative kcat/Km [3]
AATCAC,4.12 ± 1.3,2.09 ± 1.1,2.63 ± 0.078
CGGCAG,0.588 ± 0.57,0.577 ± 0.32,
CTCGAC,,5.18 ± 1.3,
ACTAGC,2.58 ± 0.78,1.98 ± 0.29,1.48 ± 0.4
TGTCCT,3.5 ± 1.6,2.14 ± 0.73,2.41 ± 0.25
TGCCTA,2.81 ± 1.7,1.59 ± 0.41,1.92 ± 0.26
CGACTC,1.66 ± 0.54,1.3 ± 0.15,1.45 ± 0.46
CATCCG,0.772 ± 0.13,,
TTCCAA,8.56 ± 3.5,4.78 ± 1.8,6.03 ± 0.65
GCGTCG,0.845 ± 0.14,,
CCGATG,1.14 ± 0.71,,
ATTTCT,4.49 ± 1.6,3.13 ± 0.84,3.56 ± 0.7
CCATTC,3.79 ± 1.1,2.03 ± 0.64,2.95 ± 0.95
GCGTGC,0.876 ± 0.036,1.26 ± 0.1,1.35 ± 0.022
CAGGGC,0.809 ± 0.4,,0.734 ± 0.28
CTCGCT,3.67 ± 0.94,1.9 ± 0.4,2.61 ± 0.72
GAGTCA,1.76 ± 0.32,1.56 ± 0.96,1.608 ± 0.016
AAACGA,2.21 ± 0.41,2.12 ± 0.92,1.89 ± 0.67
CCCACG,2.57 ± 0.54,0.913 ± 0.26,
CGTCGA,5.82 ± 2.7,2.65 ± 0.67,3.93 ± 0.86
TTCCTG,1.68 ± 1.1,,
GAGGAC,1.69 ± 0.53,0.554 ± 0.041,1.18 ± 0.34

Sequence,relative kcat/Km [1],relative kcat/Km [2],relative kcat/Km [3]
ACGCGC,1.84 ± 0.96,1.29 ± 0.8,1.07 ± 0.86
CACCAA,5.67 ± 2.1,3.7 ± 1.4,4.26 ± 1.8
TCATTA,3.48 ± 1.3,2.21 ± 1.8,2.44 ± 0.056
ATTCCT,2.93 ± 1.1,1.97 ± 0.65,2.19 ± 0.27
ACCAGA,5.9 ± 2,3.67 ± 1.1,4.14 ± 0.99
TCGTGC,2.34 ± 0.31,1.59 ± 1.2,1.59 ± 0.089
GGCGAC,4.08 ± 1.4,2.53 ± 0.11,2.47 ± 1.2
TGTCTC,4.13 ± 1.7,2.62 ± 0.093,3.34 ± 0.98
CGGATC,1 ± 0.26,0.825 ± 0.23,1.03 ± 0.13
GTATAG,3.69 ± 0.99,,1.79 ± 0.37
CAGCTC,2.37 ± 0.79,1.95 ± 0.3,1.8 ± 0.74
TCGGAA,1.33 ± 0.09,1.2 ± 1.2,1.23 ± 0.93
CATGAC,4.61 ± 1.3,3.37 ± 1.7,3.84 ± 1.1
CTAACC,1.33 ± 0.47,1.72 ± 1,1.02 ± 0.13
TCTCTA,2.59 ± 1.1,2.46 ± 0.58,2.15 ± 0.45
GAGCCT,2.01 ± 0.96,1.72 ± 0.7,1.57 ± 0.59
GAACGA,3.08 ± 0.87,2.48 ± 1.1,2.3816 ± 7.8e-05
CGTTCC,4.59 ± 2.1,2.71 ± 0.33,3.24 ± 1.6
GGGCGG,1.13 ± 0.15,0.411 ± 0.1,0.428 ± 0.31
GATTTT,4.09 ± 1.4,1.83 ± 0.22,2.66 ± 0.3
TGAGGT,2.21 ± 0.55,,
ATCGTT,2.84 ± 1.1,2.06 ± 1.1,2.08 ± 0.23

Sequence,relative kcat/Km [1],relative kcat/Km [2],relative kcat/Km [3]
ATCAGG,1.41 ± 0.062,0.528 ± 0.016,
ATCGAT,3.36 ± 1.2,1.99 ± 0.67,3 ± 0.7
TTGCAG,1.37 ± 0.19,,
AAGGTA,,0.672 ± 0.17,
GCCTTA,5.21 ± 1.5,2.94 ± 1.2,3.35 ± 0.54
ACGCCG,1.03 ± 0.27,,
GAGAAT,3.82 ± 1.4,1.7 ± 1.1,2.37 ± 0.3
AGCCGC,4.02 ± 1.1,3.07 ± 1.3,2.5 ± 0.098
GGCTAA,3.19 ± 0.8,2.12 ± 0.85,2.32 ± 0.78
CAAGAC,2.72 ± 0.92,1.96 ± 0.11,2 ± 0.92
GAAAAG,0.958 ± 0.54,,
GAGCTA,1.29 ± 0.63,1.12 ± 0.23,0.367 ± 0.083
CGAGAG,0.931 ± 0.1,0.809 ± 0.14,
TAAGAG,2 ± 0.57,,0.587 ± 0.16
AGTGAG,0.906 ± 0.36,,0.583 ± 0.48
GCGATA,1.3 ± 0.22,1.52 ± 0.59,1.51 ± 0.55
AAGCAG,1.22 ± 0.47,0.388 ± 0.27,
CCGCAA,2.59 ± 0.5,2.37 ± 1.4,1.91 ± 0.27
